Test results: the supplement of paper PMC11417369
This is one part of the list.

Test system: PfAP2-HC AP2 domain (GST-tagged)
Experiment: gcPBM binding intensity (ln(normalized median fluorescence intensity)); higher = stronger DNA binding
Outline: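 Binding intensity is the highest Masliner-normalised natural-log median intensity over replicate spots in either probe orientation. To obtain it, GST-tagged P. falciparum DNA-binding domains made in E. coli were incubated for 1 h on an Agilent 4 × 180k array of primer-extended double-stranded 36-bp intergenic genomic probes plus negative controls. Detection used Alexa488 anti-GST antibody with scanning at 488 nm.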

Sequence	gcPBM binding intensity (ln)
TATATATATACATATTGTACATATTACATGCTATTA [XGTACX_site1184]	9.77
CATTTTCATTTTAAGGTGCATTAATATTTATTTTAA [GTGCAC_site9437]	9.53
TCATTTTAAATATGTGTGCACGTTATAATTTACACA	10.1
TATGAACTTTTGGGGGTGCCTTAAAATGTATATTCT	9.84
ATATATATATAAAGCAGTACACACATTTATTTTAGA [XGTACX_site7226]	9.9
TATCAAAGTAGAAGAGATCGATGTCATATTGTGATG [GTGCAC_negctrl_site42]	9.69
TCCCAATTTATTATGTGTACTTATTATATACATATA [XGTACX_site4033]	9.72
TTATGAATACTTCAAGTGCATTTATTTTATATGACA	9.53
ATTGTGGATATTCTTACACACAAATTTATATATAAA [CACACA_site2601]	9.6
ATATTCTAAATAAAGGGTACACAAAAATAATTAAAG [XGTACX_site5529]	9.7
TATTTGTAATATTATACACACATTATGTATTACAAA [CACACA_site3386]	9.68
TTTTGTATATTATATGTACACACAATAAGTTAATAT [CACACA_site8207]	9.74
ATAATATGAAGAAGCACACTCAATTAAATACAGATA [CACACA_site4690]	9.72
ATACACACATATATGTGTACATATACATATATATAT [XGTACX_site6744]	10.1
AACAAAATAGGGAACACACACATGTCGATATATAAA [CACACA_site7265]	10.1
CACAGACACGGACACACACACATATATATATATATA [CACACA_site5248]	10.4
AAGAATTATTTTTTATGTACTTATATGTCAATTTTC [XGTACX_site6676]	9.68
ATAGAATATTTTATTACACACAGAATAATAAAAAAT [CACACA_site6190]	9.84
CTAAAAGGATGATGAATGCACTATTATTTATATGGA	9.47
TTATTTTTTTTAGCATATACAAATATATATATATAT [GTGCAC_negctrl_site4]	9.56
TTGTGTGAGCAAGTAGTGCATAATATAAATAAAAAA [GTGCAC_site9802]	10
TGAAATTTGTTATATGCATGTAAAATATTACGACGA [TGCATGCA_site201]	9.57
CATAAATATTTGTGTTGTACAAATATATATATTTAT [XGTACX_site7363]	9.64

Sequence	gcPBM binding intensity (ln)
AAAATTGAAGGTAGAAGTACATATTTATTTCAATAA [XGTACX_site8732]	9.63
TATATAATATATTTATGTACGTATTTAAAAATTTAT [XGTACX_site160]	9.51
TGTATTTATTAATGTACACACATGCGTATGTTCGTT [CACACA_site5892]	9.96
GAAGGAAATAAATCAACACACATATATTATATATAT [CACACA_site2188]	9.88
TATGTATAAAAATAATGTACAAAATATATTATATGT [XGTACX_site2794]	9.7
ATCTTAGTTGAAATATAGAATTTATAATAAAAGTTA [GTGCAC_negctrl_site122]	9.38
ATACTATAATAATACACACTCATTAGATATATAAAG [CACACA_site7787]	9.89
AAAAAACAAAAAAATACACACATAAAAAGGTTTTAG [CACACA_site3584]	9.99
AAATATGTCAAATATACACACATAATAAATATAATA [CACACA_site2310]	9.99
TTATAAGATGATTATAAAATCAAATTCATTCTTTTA [CACACA_negctrl_site1338]	9.26
TAAACATAACAAAGGAGTACAAAACTTGATCAGTTC [XGTACX_site3114]	10
TGTACAAATATGTACACACACACATATTTATTTATA [CACACA_site6419]	10.2
GATTTACATTTTGATGAAAATAATAAAATGTGGAAA [TGCATGCA_negctrl_site409]	9.59
ATATTTTATTTTTAAAGTACAAAAGAAAAGAATAAT [XGTACX_site8247]	9.58
AAAAAAAAAGACAAAAGTACAAAGGTTCATAATTTA [XGTACX_site3978]	9.66
AACATCAAAATATGCACACAAACAATTAGCGGTAGT [CACACA_site2521]	9.99
GAAATGGGTAAACATACACACACACCGATATATATA [CACACA_site8610]	10.4
TAACAATTATGCTGGTGTACGTTTGAAATTGGGTAT [XGTACX_site6846]	9.71
AAAAATTTCTATTTTTGTACTTACTTTTTAGTAATA [XGTACX_site5236]	9.45
CTTATATTTGGACACACACACAATAAAATGAAAAAA [CACACA_site6614]	10.3
AAATCTTCATAATAAAGTACTTAACTCTTGGTGTTA [XGTACX_site6112]	9.36
TACACAAGAAAATTCACACACACACCGATATATATA [CACACA_site6008]	10.7
